# Measurements reported in PubChem BioAssay (Tox21).
# Values joined by “and” are separate entries in the source; they are usually repeats but may differ in a detail not shown here. Equal entries are not always repeated. Inconclusive results, whose numbers are uncertain, are shown with a selection of clear calls. For some of these results: Where the call is inconclusive, the potency comes from a doubtful curve fit. Some compounds were tested as several samples or in several runs, with calls that do not always agree. Active and inactive are the calls of the source. Unless noted, calls come from the whole dose curve; as a rule, active = well fitted curve in the direction sought with a large enough effect in the repeat runs; inconclusive = weak or mixed curves; inactive = no such curve, though single readings can be large; an effect the other way counts as inactive or inconclusive.
# What was measured:
# [1] = qHTS assay to identify small molecule antagonists of the peroxisome proliferator-activated receptor delta (PPARd) signaling pathway - cell viability counter screen (AID 743213); details: PPARd-bla HEK293H viability, CellTiter-Glo luminescence, 17 h; viability change, negative = cytotoxic: at 62 µM (top of the series) unless noted; note: nearly all actives have a fitted effect of over 50% in size; note: potency is the fitted concentration of half-maximal effect
# Method in brief: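 CellTiter-Glo was added to PPARd-bla HEK293H wells following 17 h compound treatment in the presence of 300 nM L165041. Luminescence was recorded after 30 min at room temperature.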
# [2] = molecular target: Peroxisome proliferator-activated receptor delta (Homo sapiens) (UniProt Q03181); experiment: qHTS assay to identify small molecule antagonists of the peroxisome proliferator-activated receptor delta (PPARd) signaling pathway (AID 743215; active = well fitted inhibition curve with a large enough effect in the signal ratio in the repeat runs, not every such curve was filed as active; inconclusive = weak or mixed curves, or effect the other way; inactive = no such curve, though single readings can be large or run the other way; the % refers to the signal ratio;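 note: cells stimulated with agonist L165041 at 300 nM final during compound exposure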; note: potency is the fitted concentration of half-maximal effect); details: HEK293H PPARd-UAS-bla, beta-lactamase FRET ratio, antagonist, 17 h; ratio activity, negative = inhibition: at 62 µM (top of the series) unless noted
# Method in brief: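 PPARd-bla HEK293H cells (UAS-bla reporter) preincubated 5 h, then given compound plus 300 nM final L165041 agonist for 17 h at 37 C. Beta-lactamase activity read by LiveBLAzer B/G FRET substrate fluorescence after 2 h at room temperature.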
# [3] = qHTS assay to identify small molecule agonists of the farnesoid-X-receptor (FXR) signaling pathway - cell viability counter screen (AID 743218); details: FXR-bla HEK293T viability, CellTiter-Glo luminescence, 16 h; viability change, negative = cytotoxic: at 62.6 µM (top of the series) unless noted; note: nearly all actives have a fitted effect of over 45% in size; note: potency is the fitted concentration of half-maximal effect
# Method in brief: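 FXR-UAS-bla HEK 293T cells exposed to compounds for 16 h at 37C. Cytotoxicity read in the same wells by CellTiter-Glo luminescence after 30 min at room temperature, following the beta-lactamase FRET read.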
# [4] = qHTS assay to identify small molecule antagonists of the vitamin D receptor (VDR) signaling pathway - cell viability counter screen (AID 743225); details: VDR-bla HEK293T viability, CellTiter-Glo luminescence, 16 h; viability change, negative = cytotoxic: at 61 µM (top of the series) unless noted; note: nearly all actives have a fitted effect of over 50% in size; note: potency is the fitted concentration of half-maximal effect
# Method in brief: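 VDR-bla HEK 293T cells, 4 h pre-incubation at 37C, then compound plus 1-alpha,25-dihydroxyvitamin D3 (3 nM final) for 16 h. After the beta-lactamase FRET read, CellTiter-Glo was added to the same wells; luminescence after 30 min at room temperature.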
# [5] = qHTS assay to identify small molecule agonists of the NFkB signaling pathway - cell viability counter screen (AID 1159515; calls by dose curve; note: potency is the fitted concentration of half-maximal effect; nearly all actives have a fitted effect of over 55% in size)
# Method in brief: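 NFkB-bla ME-180 cells, 2,000/well, plated overnight at 37 C; compound added for 5 hr at 37 C. Viability read in the same wells as the bla reporter, by CellTiter-Glo luminescence after 30 min at room temperature.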
# [6] = qHTS assay to identify small molecule antagonists of the peroxisome proliferator-activated receptor gamma (PPARg) signaling pathway - cell viability counter screen (AID 743194); details: PPARg-bla HEK293H viability, CellTiter-Glo luminescence, 17 h; Potency: co-treated with 50 nM rosiglitazone unless noted; activity change, negative = cytotoxicity: at 62.6 µM (top of the series), co-treated with 50 nM rosiglitazone unless noted; note: nearly all actives have a fitted effect of over 55% in size; note: potency is the fitted concentration of half-maximal effect
# Method in brief: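 PPARg-UAS-bla HEK293H cells were plated, rested 5 h at 37 C, then treated with compounds plus rosiglitazone (50 nM final) for 17 h at 37 C; viability was then read by CellTiter-Glo luminescence after 30 min at room temperature.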
# [7] = qHTS assay for small molecule agonists of the antioxidant response element (ARE) signaling pathway - cell viability counter screen (AID 743203; calls by dose curve; note: potency is the fitted concentration of half-maximal effect; nearly all actives have a fitted effect of over 55% in size)
# Method in brief: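 ARE-bla HepG2 cells were plated, rested 5 h at 37C/5% CO2, then exposed to compounds in DMSO for 16 h. Viability was read as CellTiter-Glo luminescence after 30 min at room temperature, in the same wells as the ARE screen.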
# [8] = molecular target: Bile acid receptor (Homo sapiens) (UniProt Q96RI1); experiment: qHTS assay to identify small molecule antagonists of the farnesoid-X-receptor (FXR) signaling pathway (AID 743217; active = well fitted inhibition curve with a large enough effect in the signal ratio in the repeat runs, not every such curve was filed as active; inconclusive = weak or mixed curves, or effect the other way; inactive = no such curve, though single readings can be large or run the other way; the % refers to the signal ratio; note: % is set by controls: 0 for no effect and ±100 for the full control effect); details: HEK293T FXR-UAS-bla, beta-lactamase ratio, CDCA-stimulated, 16 h; activity change, negative = inhibition: at 62.6 µM (top of the series) unless noted
# Method in brief: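 FXR-UAS-bla HEK 293T cells (beta-lactamase reporter) given compound plus chenodeoxycholic acid (50 uM final), 16 h at 37C. LiveBLAzer B/G FRET substrate added for 2 h at room temperature; fluorescence read.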
# [9] = molecular target: Bile acid receptor (Homo sapiens) (UniProt Q96RI1); experiment: qHTS assay to identify small molecule agonists of the farnesoid-X-receptor (FXR) signaling pathway (AID 743220; active = well fitted activation curve with a large enough effect in the signal ratio in the repeat runs, not every such curve was filed as active; inconclusive = weak or mixed curves, or effect the other way; the % refers to the signal ratio; note: potency is the fitted concentration of half-maximal effect); details: HEK293T FXR-UAS-bla, beta-lactamase FRET ratio, 16 h; activation: at 62.6 µM (top of the series) unless noted
# Method in brief: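 Beta-lactamase reporter under UAS control in GeneBLAzer FXR HEK 293T cells (5000/well) measured with LiveBLAzer FRET substrate after 2 h at room temperature. Compound exposure lasted 16 h at 37C.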
# [10] = qHTS assay to identify small molecule antagonists of the farnesoid-X-receptor (FXR) signaling pathway - cell viability counter screen (AID 743221; active = well fitted cell-killing curve with a large enough effect in the repeat runs, not every such curve was filed as active; inconclusive = weak or mixed curves, or effect the other way; inactive = no such curve, though single readings can be large or run the other way; note: nearly all actives have a fitted effect of over 50% in size; note: potency is the fitted concentration of half-maximal effect); details: FXR-bla HEK293T viability, CellTiter-Glo luminescence, 16 h; activity change, negative = cytotoxicity: at 62.6 µM (top of the series) unless noted
# Method in brief: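 FXR-UAS-bla HEK 293T cells were treated with test compounds plus chenodeoxycholic acid (50 uM final) for 16 h at 37 C. Cell viability in the same wells was then read as CellTiter-Glo luminescence after 30 min at room temperature.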
# [11] = molecular target: Vitamin D3 receptor (Homo sapiens) (UniProt P11473); experiment: qHTS assay to identify small molecule agonists of the vitamin D receptor (VDR) signaling pathway (AID 743222; calls by dose curve; note: % is set by controls: 0 for no effect and ±100 for the full control effect); details: HEK293T VDR-UAS-bla, beta-lactamase FRET ratio, 16 h; activation: at 63.5 µM (top of the series) unless noted
# Method in brief: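 VDR-bla cells plated 4 h at 37 C, then exposed to compounds for 16 h at 37 C. Beta-lactamase reporter activity measured by fluorescence after 2 h room-temperature loading with LiveBLAzer B/G FRET substrate.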
# [12] = qHTS assay to identify small molecule agonists of the vitamin D receptor (VDR) signaling pathway - cell viability counter screen (AID 743224); note: potency is the fitted concentration of half-maximal effect; nearly all actives have a fitted effect of over 50% in size
# Method in brief: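 VDR-bla cells, 4 h after plating, exposed to compounds for 16 h at 37C; viability then read in the same wells as CellTiter-Glo luminescence after 30 min at room temperature, following the bla FRET read.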
# [13] = qHTS assay to identify small molecule agonists of the endoplasmic reticulum stress response signaling pathway (AID 1159516; active = well fitted activation curve with a large enough effect in the signal ratio in the repeat runs, not every such curve was filed as active; inconclusive = weak or mixed curves, or effect the other way; the % refers to the signal ratio; note: % is set by controls: 0 for no effect and ±100 for the full control effect); details: ESRE-bla HeLa, ER stress beta-lactamase reporter, 5 h
# Method in brief: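 CellSensor ESRE-bla HeLa cells, 1,500 per well, plated overnight, then exposed to compounds for 5 hr at 37 C. Beta-lactamase reporter read with LiveBLAzer B/G FRET substrate after 2 hr at room temperature, 405 nm excitation, 460 and 530 nm emission.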
# [14] = qHTS assay for small molecule activators of the heat shock response signaling pathway - cell viability counter screen (AID 743209); details: HSE-bla HeLa viability, CellTiter-Glo luminescence, 5 h; activity change, negative = cytotoxicity: at 62.6 µM (top of the series) unless noted; note: nearly all actives have a fitted effect of over 50% in size; note: potency is the fitted concentration of half-maximal effect
# Method in brief: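 HSE-bla HeLa cells plated overnight, then exposed to Tox21 compounds (23 nL in DMSO) for 5 h at 37 C. After the bla reporter read, CellTiter-Glo was added in the same wells and luminescence read after 30 min at room temperature.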
# [15] = molecular target: Peroxisome proliferator-activated receptor delta (Homo sapiens) (UniProt Q03181); experiment: qHTS assay to identify small molecule agonists of the peroxisome proliferator-activated receptor delta (PPARd) signaling pathway (AID 743212; calls by dose curve; note: % is set by controls: 0 for no effect and ±100 for the full control effect); details: HEK293H PPARd-UAS-bla, beta-lactamase FRET ratio, 17 h; activation: at 62.6 µM (top of the series) unless noted
# Method in brief: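 GeneBLAzer PPARd UAS-bla HEK293H cells (beta-lactamase reporter under UAS control), plated and rested 5 h at 37 C, then exposed to compounds in DMSO at 37 C; LiveBLAzer B/G FRET substrate added, 2 h room temperature, fluorescence read.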
# [16] = molecular target: Peroxisome proliferator-activated receptor gamma (Homo sapiens) (UniProt P37231); experiment: qHTS assay to identify small molecule antagonists of the peroxisome proliferator-activated receptor gamma (PPARg) signaling pathway (AID 743191; calls by dose curve; note: % is set by controls: 0 for no effect and ±100 for the full control effect; nearly all actives have a fitted effect of over 30% in size); details: HEK293H PPARg-UAS-bla, beta-lactamase ratio, antagonist, 17 h; ratio activity, negative = inhibition: at 62.6 µM (top of the series) unless noted
# Method in brief: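 GeneBLAzer PPARg UAS-bla HEK293H cells carrying a UAS-driven beta-lactamase reporter were plated at 3000 cells/well, preincubated 5 h at 37C, then given compound for 17 h at 37C; LiveBLAzer B/G FRET substrate was read after 1 h at room temperature.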
# [17] = qHTS assay for small molecule agonists of the antioxidant response element (ARE) signaling pathway (AID 743202; active = well fitted activation curve with a large enough effect in the signal ratio in the repeat runs, not every such curve was filed as active; inconclusive = weak or mixed curves, or effect the other way; inactive = no such curve, though single readings can be large or run the other way; the % refers to the signal ratio; note: % is set by controls: 0 for no effect and ±100 for the full control effect); details: HepG2 ARE-bla reporter, beta-lactamase FRET, 16 h; activation: at 73.3 µM (top of the series) unless noted
# Method in brief: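 Read-out: LiveBLAzer B/G FRET substrate fluorescence after 2 h at room temperature, following 16 h compound treatment at 37 C of HepG2 cells carrying an ARE-driven beta-lactamase reporter.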
# [18] = qHTS assay to identify small molecule agonists of the peroxisome proliferator-activated receptor delta (PPARd) signaling pathway - cell viability counter screen (AID 743211); details: PPARd-bla HEK293H viability, CellTiter-Glo luminescence, 17 h; activity change, negative = cytotoxicity: at 62.6 µM (top of the series) unless noted; note: potency is the fitted concentration of half-maximal effect; nearly all actives have a fitted effect of over 55% in size
# Method in brief: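 PPARd-bla HEK293H cells (UAS-beta-lactamase reporter) were treated with compounds for 17 h at 37 C. Viability was then read in the same wells by CellTiter-Glo luminescence after 30 min at room temperature.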
# [19] = molecular target: Vitamin D3 receptor (Homo sapiens) (UniProt P11473); experiment: qHTS assay to identify small molecule antagonists of the vitamin D receptor (VDR) signaling pathway (AID 743223; active = well fitted inhibition curve with a large enough effect in the signal ratio in the repeat runs, not every such curve was filed as active; inconclusive = weak or mixed curves, or effect the other way; inactive = no such curve, though single readings can be large or run the other way; the % refers to the signal ratio; note: % is set by controls: 0 for no effect and ±100 for the full control effect); details: VDR-UAS-bla HEK293T, beta-lactamase FRET ratio, 16 h; activity change, negative = inhibition: at 61 µM (top of the series) unless noted
# Method in brief: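 VDR-bla cells were plated, incubated 4 h at 37C, then given compound and 1alpha,25-dihydroxyvitamin D3 (3 nM final). After 16 h at 37C, LiveBLAzer B/G FRET substrate was added for 2 h at room temperature and fluorescence read.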
# [20] = qHTS assay for small molecule activators of the heat shock response signaling pathway (AID 743210; active = well fitted activation curve with a large enough effect in the signal ratio in the repeat runs, with a control signal flat, not every such curve was filed as active; inconclusive = weak or mixed curves; the % refers to the signal ratio; note: % is set by controls: 0 for no effect and ±100 for the full control effect); details: HeLa HSE-bla reporter, beta-lactamase ratio, 5 h; activation: at 62.6 µM (top of the series)
# Method in brief: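 HSE-bla HeLa cells (beta-lactamase reporter under heat shock response elements) were exposed to compounds for 5 h at 37 C, then loaded with LiveBLAzer B/G FRET substrate for 2.5 h at room temperature before fluorescence reading.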
# [21] = activation: at 61 µM (top of the series) unless noted
# Tags give direction and shape of the fitted curve or compound fluorescence and quenching.
# Sequence of UniProt Q96RI1 (Q96RI1 whole entry, looked up): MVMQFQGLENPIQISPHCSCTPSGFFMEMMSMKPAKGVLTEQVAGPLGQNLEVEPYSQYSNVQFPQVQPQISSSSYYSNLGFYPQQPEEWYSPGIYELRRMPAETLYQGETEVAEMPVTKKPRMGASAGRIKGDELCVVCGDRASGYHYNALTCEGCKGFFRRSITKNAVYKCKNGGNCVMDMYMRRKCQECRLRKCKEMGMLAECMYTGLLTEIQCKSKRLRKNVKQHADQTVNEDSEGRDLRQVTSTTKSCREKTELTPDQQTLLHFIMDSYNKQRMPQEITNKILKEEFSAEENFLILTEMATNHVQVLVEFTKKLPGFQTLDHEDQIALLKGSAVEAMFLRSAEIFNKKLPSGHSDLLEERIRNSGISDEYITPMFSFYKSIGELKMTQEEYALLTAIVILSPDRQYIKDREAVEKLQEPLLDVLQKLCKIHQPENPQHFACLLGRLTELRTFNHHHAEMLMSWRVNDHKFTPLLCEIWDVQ
# Sequence of UniProt Q03181 (Q03181 whole entry, looked up): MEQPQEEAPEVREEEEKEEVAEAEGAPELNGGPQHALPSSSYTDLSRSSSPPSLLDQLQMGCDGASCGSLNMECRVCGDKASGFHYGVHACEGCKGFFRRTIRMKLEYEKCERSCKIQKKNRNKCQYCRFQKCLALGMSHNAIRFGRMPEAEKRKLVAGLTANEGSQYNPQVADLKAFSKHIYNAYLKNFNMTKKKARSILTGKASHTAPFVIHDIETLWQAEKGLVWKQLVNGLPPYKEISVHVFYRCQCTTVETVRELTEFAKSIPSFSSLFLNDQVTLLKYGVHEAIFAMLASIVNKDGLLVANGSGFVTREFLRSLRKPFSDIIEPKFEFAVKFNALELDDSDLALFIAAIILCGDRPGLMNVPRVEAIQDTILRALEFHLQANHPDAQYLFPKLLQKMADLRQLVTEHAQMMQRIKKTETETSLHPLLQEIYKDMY
# Sequence of UniProt P11473 (P11473 whole entry, looked up): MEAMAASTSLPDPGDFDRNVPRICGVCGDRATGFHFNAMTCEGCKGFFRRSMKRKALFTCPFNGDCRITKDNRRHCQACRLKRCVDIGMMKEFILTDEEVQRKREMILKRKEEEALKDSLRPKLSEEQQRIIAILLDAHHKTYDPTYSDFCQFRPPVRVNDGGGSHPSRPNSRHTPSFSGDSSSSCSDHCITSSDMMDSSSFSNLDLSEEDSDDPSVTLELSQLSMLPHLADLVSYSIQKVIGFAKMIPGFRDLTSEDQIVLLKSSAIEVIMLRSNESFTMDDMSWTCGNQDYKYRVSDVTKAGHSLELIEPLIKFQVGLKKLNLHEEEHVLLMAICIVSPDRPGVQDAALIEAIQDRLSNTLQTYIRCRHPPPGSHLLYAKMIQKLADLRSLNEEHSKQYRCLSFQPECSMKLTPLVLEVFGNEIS
# Sequence of UniProt P37231 (P37231 whole entry, looked up): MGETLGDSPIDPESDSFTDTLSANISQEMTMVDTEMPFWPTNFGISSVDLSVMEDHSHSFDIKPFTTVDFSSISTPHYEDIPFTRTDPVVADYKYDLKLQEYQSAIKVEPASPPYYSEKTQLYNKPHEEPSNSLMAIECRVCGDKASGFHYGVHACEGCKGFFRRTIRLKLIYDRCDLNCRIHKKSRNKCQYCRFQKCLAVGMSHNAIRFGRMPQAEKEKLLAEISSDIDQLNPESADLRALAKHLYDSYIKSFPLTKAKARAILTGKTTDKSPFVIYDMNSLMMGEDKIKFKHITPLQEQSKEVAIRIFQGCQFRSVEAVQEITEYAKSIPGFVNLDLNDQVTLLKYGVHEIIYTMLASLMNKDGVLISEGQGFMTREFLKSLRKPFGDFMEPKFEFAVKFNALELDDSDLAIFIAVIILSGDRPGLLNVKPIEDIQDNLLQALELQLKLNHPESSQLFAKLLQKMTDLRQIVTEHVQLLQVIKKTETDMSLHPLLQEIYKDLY
smiles,measurement,setting,value
CCCCCCOC(=O)c1ccccc1C(=O)OCCCCCC,Potency,[1],"inconclusive: 2.23 µM [cytotoxic, full curve, poor fit]"
same,Potency,[2],"inconclusive: 25.1 µM [rising, partial curve, poor fit]"
same,Potency,[3],"inconclusive: 0.792 µM [rising, full curve, poor fit]"
same,Potency,[4],"inconclusive: 1.26 µM [cytotoxic, single point] and inactive"
same,Potency,[5],"inconclusive: 0.5 µM [cytotoxic, single point]"
Nc1c(Cl)cc([N+](=O)[O-])cc1Cl,Potency,[6],"inconclusive: 11 µM [rising, full curve, poor fit]"
same,Potency,[7],"inconclusive: 7.7 µM [cytotoxic, partial curve, poor fit]"
same,Potency,[1],active: 4.36 µM
same,"ratio activity, negative = inhibition",[2],inconclusive: 0.0847%
same,Potency,[8],inactive
same,Potency,[9],"inconclusive: 1.55 µM [rising, full curve]"
same,Potency,[10],active: 4.36 µM
same,Potency,[11],inactive
same,Potency,[12],"inconclusive: 27.5 µM [cytotoxic, partial curve]"
same,Potency,[4],"inconclusive: 6.16 µM [cytotoxic, full curve]"
same,activation,[13]; [21],inconclusive: 2.62% [at 78.8 µM]
same,activation,[13]; at 61 µM (top of the series),inactive: -3.65%
CCCCCCCCCBr,Potency,[14],inactive
same,Potency,[15],inactive
same,Potency,[3],inactive
same,Potency,[5],"inconclusive: 22.1 µM [cytotoxic, full curve]"
CCCCN(CC)c1c([N+](=O)[O-])cc(C(F)(F)F)cc1[N+](=O)[O-],Potency,[16],inactive
same,"activity change, negative = cytotoxicity",[6],"inconclusive: 31% [at 81.1 µM, co-treated with 50 nM rosiglitazone]"
same,Potency,[17],inactive
same,Potency,[18],"inconclusive: 1.95 µM [rising, full curve, poor fit]"
same,Potency,[1],"inconclusive: 6.92 µM [rising, full curve]"
same,Potency,[19],inactive
same,activation,[13]; at 61 µM (top of the series),inconclusive: -4.21%
same,activation,[13]; at 78.8 µM (top of the series),inconclusive: -2.68%
N#CS,Potency,[14],"inconclusive: 0.0019 µM [rising, full curve, poor fit]"
same,Potency,[20],inactive
same,Potency,[1],inactive
same,Potency,[10],inactive
same,"viability change, negative = cytotoxic",[4],inconclusive: -17.6% [cytotoxic] [at 78.8 µM]
same,activation,[13]; [21],inconclusive: -0.0544%
same,activation,[13]; at 61 µM (top of the series),inactive: -3.82% and inactive: -0.162%
same,activation,[13]; at 78.8 µM (top of the series),inactive: -0.347%
